# From the supplement of paper PMC8728848
# This is one part of the list.
# B1: CIH1 (Colletotrichum higginsianum) (protein)
# chain: LPQATPTTPTPTSASAAATISATSSPTCSPGPVIDYTVVSGDTLTIISQRFSSGICNIADASGITNPNFLSLGQVLQVPTYVCTPDNTSCLAKEGSDTCVEGGPATHTIVAGDTFFLVAQSLGLDVNALLAANEGVDPLLLQIGDVINIPVC
# Assays:
# Assay in all cases: glycan array binding signal (z-score within array); higher = stronger binding
# Settings in all cases: glycan notation: IUPAC condensed, linker removed
# [1] = target: Neu5Ac(a2-6)Gal(b1-4)GlcNAc(b1-2)Man(a1-3)[Man(a1-6)]Man(b1-4)GlcNAc(b1-4)GlcNAc
# Method in brief: (§1)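 Columns mapping to the same glycan were averaged after glycan names were converted to IUPAC-condensed notation. The data come from 3228 arrays in the Consortium for Functional Glycomics database, limited to those with an available protein sequence. Binding is reported as a within-array Z-score averaged across arrays of one protein sequence and across linkers.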
# [2] = target: Neu5Ac(a2-6)Gal(b1-4)GlcNAc(b1-2)Man(a1-3)[Neu5Ac(a2-6)Gal(b1-4)GlcNAc(b1-2)Man(a1-6)]Man(b1-4)GlcNAc(b1-4)GlcNAc
# Method in brief: as §1
# [3] = target: Neu5Ac(a2-6)Gal(b1-4)GlcNAc(b1-2)Man(a1-3)[Neu5Ac(a2-6)Gal(b1-4)GlcNAc(b1-2)Man(a1-6)]Man(b1-4)GlcNAc(b1-4)[Fuc(a1-6)]GlcNAc
# Method in brief: as §1
# [4] = target: Neu5Ac(a2-6)Gal(b1-4)GlcNAc(b1-2)Man(a1-6)Man(b1-4)GlcNAc(b1-4)GlcNAc
# Method in brief: as §1
# [5] = target: Neu5Ac(a2-6)Gal(b1-4)GlcNAc(b1-2)Man(a1-6)[Gal(b1-4)GlcNAc(b1-2)Man(a1-3)]Man(b1-4)GlcNAc(b1-4)GlcNAc
# Method in brief: as §1
# [6] = target: Neu5Ac(a2-6)Gal(b1-4)GlcNAc(b1-2)Man(a1-6)[GlcNAc(b1-2)Man(a1-3)]Man(b1-4)GlcNAc(b1-4)GlcNAc
# Method in brief: as §1
# [7] = target: Neu5Ac(a2-6)Gal(b1-4)GlcNAc(b1-2)Man(a1-6)[Man(a1-3)]Man(b1-4)GlcNAc(b1-4)GlcNAc
# Method in brief: as §1
# [8] = target: Neu5Ac(a2-6)Gal(b1-4)GlcNAc(b1-3)Gal(b1-3)GlcNAc
# Method in brief: as §1
# [9] = target: Neu5Ac(a2-6)Gal(b1-4)GlcNAc(b1-3)Gal(b1-4)GlcNAc
# Method in brief: as §1
# [10] = target: Neu5Ac(a2-6)Gal(b1-4)GlcNAc(b1-3)Gal(b1-4)GlcNAc(b1-3)Gal(b1-4)GlcNAc
# Method in brief: as §1
# [11] = target: Neu5Ac(a2-6)Gal(b1-4)GlcNAc(b1-3)Gal(b1-4)[Fuc(a1-3)]GlcNAc(b1-3)Gal(b1-4)[Fuc(a1-3)]GlcNAc
# Method in brief: as §1
# [12] = target: Neu5Ac(a2-6)Gal(b1-4)GlcNAc(b1-3)GalNAc
# Method in brief: as §1
# [13] = target: Neu5Ac(a2-6)Gal(b1-4)GlcNAc(b1-3)[Neu5Ac(a2-6)Gal(b1-4)GlcNAc(b1-6)]GalNAc
# Method in brief: as §1
# [14] = target: Neu5Ac(a2-6)Gal(b1-4)GlcNAc(b1-6)GalNAc
# Method in brief: as §1
# [15] = target: Neu5Ac(a2-6)Gal(b1-4)GlcNAc(b1-6)[Gal(b1-3)GlcNAc(b1-3)]Gal(b1-4)Glc
# Method in brief: as §1
# [16] = target: Neu5Ac(a2-6)Gal(b1-4)GlcNAc6S
# Method in brief: as §1
# Neu5Ac(a2-6)GalNAc = target: Neu5Ac(a2-6)GalNAc
# Method in brief: as §1
# [17] = target: Neu5Ac(a2-6)GalNAc(b1-4)GlcNAc
# Method in brief: as §1
# [18] = target: Neu5Ac(a2-6)GalNAc(b1-4)GlcNAc6S
# Method in brief: as §1
# [19] = target: Neu5Ac(a2-6)GlcNAc(b1-4)GlcNAc
# Method in brief: as §1
# [20] = target: Neu5Ac(a2-6)GlcNAc(b1-4)GlcNAc(b1-4)GlcNAc
# Method in brief: as §1
# Neu5Ac(a2-8)Neu5Ac = target: Neu5Ac(a2-8)Neu5Ac
# Method in brief: as §1
# [21] = target: Neu5Ac(a2-8)Neu5Ac(a2-3)Gal(b1-3)GalNAc(b1-4)[Neu5Ac(a2-8)Neu5Ac(a2-3)]Gal(b1-4)Glc
# Method in brief: as §1
# [22] = target: Neu5Ac(a2-8)Neu5Ac(a2-3)Gal(b1-4)Glc
# Method in brief: as §1
# [23] = target: Neu5Ac(a2-8)Neu5Ac(a2-3)[Gal(b1-3)GalNAc(b1-4)]Gal(b1-4)Glc
# Method in brief: as §1
# [24] = target: Neu5Ac(a2-8)Neu5Ac(a2-3)[GalNAc(b1-4)]Gal(b1-4)Glc
# Method in brief: as §1
# [25] = target: Neu5Ac(a2-8)Neu5Ac(a2-8)Neu5Ac
# Method in brief: as §1
# [26] = target: Neu5Ac(a2-8)Neu5Ac(a2-8)Neu5Ac(a2-3)Gal(b1-4)Glc
# Method in brief: as §1
# [27] = target: Neu5Ac(a2-8)Neu5Ac(a2-8)Neu5Ac(a2-3)[GalNAc(b1-4)]Gal(b1-4)Glc
# Method in brief: as §1
# [28] = target: Neu5Ac(a2-8)Neu5Ac(a2-8)Neu5Ac(a2-8)Neu5Ac(a2-3)[GalNAc(b1-4)]Gal(b1-4)Glc
# Method in brief: as §1
# [29] = target: Neu5Ac(b2-6)Gal(b1-4)GlcNAc
# Method in brief: as §1
# Neu5Ac(b2-6)GalNAc = target: Neu5Ac(b2-6)GalNAc
# Method in brief: as §1
# [30] = target: Neu5Ac9Ac(a2-3)Gal(b1-3)GlcNAc
# Method in brief: as §1
# [31] = target: Neu5Ac9Ac(a2-3)Gal(b1-4)GlcNAc
# Method in brief: as §1
# [32] = target: Neu5Ac9Ac(a2-6)Gal(b1-4)GlcNAc
# Method in brief: as §1
# [33] = target: Neu5Gc(a2-3)Gal(b1-3)GlcNAc
# Method in brief: as §1
# [34] = target: Neu5Gc(a2-3)Gal(b1-3)[Fuc(a1-4)]GlcNAc
# Method in brief: as §1
# Neu5Gc(a2-3)Gal(b1-4)Glc = target: Neu5Gc(a2-3)Gal(b1-4)Glc
# Method in brief: as §1
# [35] = target: Neu5Gc(a2-3)Gal(b1-4)GlcNAc
# Method in brief: as §1
# [36] = target: Neu5Gc(a2-3)Gal(b1-4)[Fuc(a1-3)]GlcNAc
# Method in brief: as §1
# [37] = target: Neu5Gc(a2-6)Gal(b1-4)GlcNAc
# Method in brief: as §1
# Neu5Gc(a2-6)GalNAc = target: Neu5Gc(a2-6)GalNAc
# Method in brief: as §1
# [38] = target: Neu5Gc(b2-6)Gal(b1-4)GlcNAc
# Method in brief: as §1
binder,measurement,setting,value
B1,glycan array binding signal (z-score),[1],-0.06
same,glycan array binding signal (z-score),[2],-0.072
same,glycan array binding signal (z-score),[3],-0.086
same,glycan array binding signal (z-score),[4],-0.066
same,glycan array binding signal (z-score),[5],-0.069
same,glycan array binding signal (z-score),[6],-0.084
same,glycan array binding signal (z-score),[7],-0.096
same,glycan array binding signal (z-score),[8],-0.061
same,glycan array binding signal (z-score),[9],-0.075
same,glycan array binding signal (z-score),[10],-0.082
same,glycan array binding signal (z-score),[11],-0.064
same,glycan array binding signal (z-score),[12],-0.075
same,glycan array binding signal (z-score),[13],-0.085
same,glycan array binding signal (z-score),[14],-0.056
same,glycan array binding signal (z-score),[15],-0.072
same,glycan array binding signal (z-score),[16],-0.074
same,glycan array binding signal (z-score),Neu5Ac(a2-6)GalNAc,-0.07
same,glycan array binding signal (z-score),[17],-0.081
same,glycan array binding signal (z-score),[18],-0.079
same,glycan array binding signal (z-score),[19],-0.05
same,glycan array binding signal (z-score),[20],-0.004
same,glycan array binding signal (z-score),Neu5Ac(a2-8)Neu5Ac,-0.072
same,glycan array binding signal (z-score),[21],-0.07
same,glycan array binding signal (z-score),[22],-0.069
same,glycan array binding signal (z-score),[23],-0.088
same,glycan array binding signal (z-score),[24],-0.075
same,glycan array binding signal (z-score),[25],-0.065
same,glycan array binding signal (z-score),[26],-0.063
same,glycan array binding signal (z-score),[27],-0.048
same,glycan array binding signal (z-score),[28],-0.082
same,glycan array binding signal (z-score),[29],-0.051
same,glycan array binding signal (z-score),Neu5Ac(b2-6)GalNAc,-0.048
same,glycan array binding signal (z-score),[30],-0.065
same,glycan array binding signal (z-score),[31],-0.061
same,glycan array binding signal (z-score),[32],-0.072
same,glycan array binding signal (z-score),[33],-0.077
same,glycan array binding signal (z-score),[34],-0.072
same,glycan array binding signal (z-score),Neu5Gc(a2-3)Gal(b1-4)Glc,-0.081
same,glycan array binding signal (z-score),[35],-0.063
same,glycan array binding signal (z-score),[36],-0.085
same,glycan array binding signal (z-score),[37],-0.083
same,glycan array binding signal (z-score),Neu5Gc(a2-6)GalNAc,-0.056
same,glycan array binding signal (z-score),[38],-0.075
